Assay results taken from the supplement of paper PMC12217912.
The list shows a part of the results. Sequences were assembled here from the parent chain. Values near 0.05 are background.

B1: TEV protease; numbered along this chain (parent)
chain: MGESLFKGPRDYNPISSSICHLTNESDGHTTSLYGIGFGPFIITNKHLFRRNNGTLVVQSLHGVFKVKDTTTLQQHLVDGRDMIIIRMPKDFPPFPQKLKFREPQREERICLVTTNFQTKSMSSMVSDTSCTFPSGDGIFWKHWIQTKDGQCGSPLVSTRDGFIVGIHSASNFTNTNNYFTSVPKNFMELLTNQEAQQWVSGWRLNADSVLWGGHKVFMVKPEEPFQPVKEATQL

Variants of: B1
Assay: raw area under fraction-flipped curve 0-4 h after induction (AUC4h, not background-subtracted), DNA-recorder readout of cleavage of the substrate (dimensionless); higher = more cleavage of the substrate by the protease variant
Settings: temperature: 34 °C; time window: 0-4 h after rhamnose induction
Procedure: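 In vivo DNA recorder in E. coli TOP10(DE3) ΔrhaA at 34 °C. Each TEVp single-site mutant (parent TEVp 0) is paired with a single-site variant of the 7-mer TEVs (canonical ENLYFQ|S). The substrate sits between flexible linkers in a Bxb1-sfGFP-TEVs-SsrA fusion, so cleavage stabilises Bxb1 and speeds flipping of a recombination array, read by NGS. The value is the raw area under the fraction-flipped curve over 0-4 h after rhamnose induction (AUC4h), with ≥20 reads per time point. It is not background-subtracted; inactive controls average about 0.047.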
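Note: Bxb1 expression induced with 0.2% (w/v) L-rhamnose at OD600 near 0.5, cultures sampled hourly, flipped fraction per protease–substrate barcode pair counted by paired-end Illumina sequencing.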

Variant	area with substrate ENLAFQS	area with substrate ENLCFQS	area with substrate ENLDFQS	area with substrate ENLFFQS	area with substrate ENLHFQS	area with substrate ENLIFQS	area with substrate ENLKFQS	area with substrate ENLPFQS	area with substrate ENLSFQS	area with substrate ENLEFQS	area with substrate ENLNFQS	area with substrate ENLQFQS	area with substrate ENLWFQS	area with substrate ENLVFQS	area with substrate ENLLFQS	area with substrate ENLMFQS	area with substrate ENLRFQS	area with substrate ENLTFQS	area with substrate ENLGFQS
N193L	0.0631	0.0628	0.0766	0.0671	0.0631	0.0844	0.113	0.0614	0.058										
D208P	0.0465		0.059	0.0554	0.0642	0.075	0.066	0.0703		0.0587	0.0578	0.056	0.0545						
N186D	0.0627	0.0756		0.0936	0.0728		0.0854	0.053		0.0601	0.0657	0.0366		0.0865					
Q234Y	0.0607	0.0564	0.0703	0.0791			0.0713	0.0574	0.0623	0.0577	0.0619	0.0642			0.0343	0.0783	0.0834		
S4Q		0.071			0.0668		0.0909	0.0593	0.0541	0.0586		0.0736				0.0793		0.0595	
L205K	0.038									0.0575	0.0537	0.0589	0.0688	0.0606			0.0654		
L205I	0.0404				0.062					0.0636	0.0452								0.0654
F226R	0.0711	0.0844	0.0569	0.0746	0.0492	0.101	0.0835	0.0539	0.057	0.0579	0.0719								0.0575
G2L		0.0796	0.0587	0.0868			0.0647		0.0732		0.0707						0.0958		
G2C		0.0837																	
W212P	0.0562	0.0537	0.0825	0.0508			0.0744						0.0575				0.0779		0.0679
W212C	0.0688	0.0953	0.06	0.0536									0.0648	0.0768			0.0591		
W212L	0.0735	0.0831	0.0538	0.109	0.0726	0.0772	0.0741	0.0637		0.0629	0.0465	0.0758	0.0709	0.113		0.0464		0.0654	0.112
W212R	0.0474		0.0645	0.0605	0.0694		0.0639	0.0626		0.0516	0.0636			0.0679	0.0707		0.0436		
E3T		0.0949			0.0778								0.0684	0.0952					0.0546
L5N		0.0754	0.0538	0.084		0.106	0.0873			0.0521	0.0593	0.0869			0.0673		0.0991		

Variant	area with substrate ENLAFQS	area with substrate ENLCFQS	area with substrate ENLDFQS	area with substrate ENLFFQS	area with substrate ENLHFQS	area with substrate ENLIFQS	area with substrate ENLKFQS	area with substrate ENLPFQS	area with substrate ENLSFQS	area with substrate ENLEFQS	area with substrate ENLNFQS	area with substrate ENLQFQS	area with substrate ENLWFQS	area with substrate ENLVFQS	area with substrate ENLLFQS	area with substrate ENLMFQS	area with substrate ENLRFQS	area with substrate ENLTFQS	area with substrate ENLGFQS
L235K	0.0735	0.0728	0.0556	0.0938	0.0795			0.0471	0.0587	0.0532		0.126		0.112					
P228M	0.0505	0.0676	0.0599	0.091	0.08		0.0782	0.0499	0.0679		0.0647	0.0592		0.0519	0.0722	0.0557	0.0741		
P228G	0.0698		0.0633		0.0727	0.0638	0.0665	0.0637		0.0479	0.063	0.083	0.0596	0.0812			0.0714		
F180K	0.0607		0.0603	0.0526		0.0609	0.0464	0.0613	0.0705	0.0569		0.0613	0.0567		0.0515		0.0444		0.086
V229S	0.0666	0.0651	0.0645	0.0794	0.0811	0.092	0.0849	0.0517	0.0655	0.0672		0.0856		0.0289	0.0722		0.0991		
N178E	0.0566	0.0539	0.0599	0.0451		0.0471	0.0696	0.0461	0.0606		0.0666							0.064	0.0599
N178K	0.0519			0.111		0.0857	0.0816	0.0685		0.0665	0.0677			0.0605	0.0817		0.0722		0.0458
G202T	0.0511		0.0536	0.0559			0.0662		0.0678		0.0625						0.0425	0.0487	
Q198M	0.0607		0.0533	0.0816	0.0681	0.0864	0.0609	0.0696	0.0709	0.0842			0.0824		0.0363	0.0595	0.0685	0.0802	
Q198H	0.0734		0.0559							0.0575	0.0698				0.073			0.0789	0.0787
P222K	0.0558	0.0736	0.0599	0.074	0.0668	0.0779	0.0766		0.0522			0.0574					0.0629	0.0582	0.077
A196S	0.0594		0.0617	0.0873	0.0806	0.0835	0.0536		0.0507	0.0635	0.0643	0.0637	0.0681	0.0773		0.0739	0.104	0.0739	
F218W	0.0644	0.0615	0.058	0.086	0.0754	0.085	0.0737	0.0624	0.0537		0.0686		0.0487	0.0752		0.0744	0.0655		0.0523
T233L	0.0673	0.0537	0.061		0.069	0.0977	0.0699	0.0479	0.0722	0.0486	0.062	0.109		0.0797			0.0535		0.0799
P225G	0.0786	0.0662	0.0626	0.0774	0.0681		0.0737	0.063	0.0659		0.0696	0.0711	0.0776		0.0583		0.0967		
P225M	0.078	0.105	0.0554	0.0893	0.0699	0.0765		0.0683		0.0612	0.0603	0.0331	0.0746	0.0703	0.0625	0.0694	0.0515		
